Data reported in the supplement of paper PMC3334620.
The full ranking holds about 33,000 sequences; the median of “E-score (-0.5 to 0.5)” is about -0.016, and the highest 2% start at about 0.31. This is one part of the list.

Target: Cst6 (UniProt P40535)
Assay: PBM E-score (8-mer binding enrichment) (E-score (-0.5 to 0.5)); higher = stronger / more preferred TF binding; most listed sequences are background and not binding sites
Conditions: protein concentration: 200 nM; construct: GST-DNA-binding domain
In short: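 Bound GST-tagged yeast transcription factors, applied at about 100-200 nM to double-stranded universal all-10-mer Agilent arrays, were detected with fluorescent anti-GST. Scans were normalised with masliner. A modified Wilcoxon-Mann-Whitney statistic, the E-score, was assigned to each ungapped eight-base word pooled with its reverse complement by the Universal PBM Analysis Suite.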

Row | Sequence | PBM E-score
1 | CCATTACA | 0.225
2 | CGGAGCCA | -0.233
3 | GAGGGCAC | -0.235
4 | ACCCTTTA | 0.114
5 | ACGGCAAA | 0.28
6 | AGCCCCCC | -0.417
7 | CAATATCG | 0.0808
8 | GAGACTAC | -0.232
9 | CCGAAAAC | 0.00987
10 | AAGACTGA | 0.033
11 | CCAATTAC | 0.181
12 | AATGGTAG | 0.166
13 | GTCGCTGA | -0.00634
14 | GACCACAA | -0.23
15 | CATCAAGG | -0.0962
16 | GTACTAAC | -0.00045
17 | ACATACAG | 0.0565
18 | CTCCGTGA | -0.0604
19 | ACCTACAG | -0.0445
20 | CTTGGTGA | 0.148
21 | AATTAAGC | 0.225
22 | CCTGAGTA | -0.00474
23 | CTGGCCGC | -0.124
24 | CTCAGTAA | -0.0742
25 | GAATAAGA | 0.0803

Row | Sequence | PBM E-score
26 | AGCGATGG | -0.0842
27 | AAATGCTG | 0.102
28 | CACAGGCC | -0.0838
29 | GGGCACAC | -0.156
30 | CATTTCGA | 0.0934
31 | CTGGAATC | -0.115
32 | TCATTGAA | 0.1
33 | GAGCGGGA | -0.034
34 | AAATTATA | 0.278
35 | CATCTGGC | 0.0259
36 | CCGGAAGG | -0.278
37 | AACTATGC | 0.155
38 | CTTTAACC | -0.0766
39 | ACGTTGAG | 0.0822
40 | AAGCCAAA | 0.0153
41 | CATAGCCC | -0.238
42 | ATAAACTG | 0.0725
43 | TAGAATAA | 0.184
44 | ACACTATG | 0.0583
45 | ACTTGTAT | 0.0477
46 | GGGCAACC | -0.275
47 | AGCTCAAG | -0.148
48 | CTATAGGC | -0.261
49 | CTTGAAAG | -0.112
50 | CCACCGAG | -0.204

Row | Sequence | PBM E-score
51 | GCGCGAGC | -0.111
52 | CATATTTC | 0.0963
53 | CCGATTGC | 0.0379
54 | CAACAATG | 0.145
55 | CGTTCCCA | -0.241
56 | CCCCATAG | -0.249
57 | GTGGACAC | -0.0948
58 | AGCATCAG | -0.0733
59 | ATAGTCCA | -0.143
60 | CCGTCGAA | 0.0203
61 | AAATATTA | 0.286
62 | ACGAGGTA | -0.067
63 | ATCAATCC | 0.0761
64 | GCACGCGA | -0.0776
65 | CTAAGTCC | -0.345
66 | GGGGTGAC | 0.284
67 | CTGAGTTC | -0.0293
68 | CTCACTCC | -0.0217
69 | TACCCAAA | -0.006
70 | CCGCAAAC | -0.00407
71 | CCCTCGGC | -0.299
72 | GAGTCTCC | -0.305
73 | CAAATCTA | 0.094
74 | GCAAACAC | -0.0955
75 | CTGTTCTC | -0.118

Row | Sequence | PBM E-score
76 | CGCGAACC | -0.159
77 | AAGTTTTC | 0.126
78 | CGACAAAG | 0.168
79 | ATTCCTGC | 0.108
80 | GCACTACC | 0.00421
81 | AGGTAACA | 0.146
82 | GAATGAAC | 0.0495
83 | GCAATCCC | -0.0135
84 | AAGCAGCG | -0.0975
85 | ACAGTCGA | -0.102
86 | AAAAGAAA | 0.152
87 | GAACCCGA | -0.197
88 | CAGAACGC | -0.152
89 | CTGCTTAC | 0.00293
90 | AGCCCACG | -0.106
91 | ACAACAGC | 0.133
92 | AGTTCTGA | 0.0643
93 | CGCGTATC | 0.0728
94 | ATTCCGGG | -0.144
95 | AGGTAATC | 0.0388
96 | AAAGGGCA | 0.0801
97 | ATAAGACA | 0.0938
98 | CAACTTCA | 0.0717
99 | TGGGAACA | -0.195
100 | CATGAAGA | 0.0998

Row | Sequence | PBM E-score
101 | AAGGGAGT | -0.222
102 | GTCCTATA | -0.151
103 | AGACGAAG | -0.117
104 | AAATGCAA | 0.037
105 | CGACGATA | 0.0441
106 | AACGTGGA | 0.0571
107 | ACGCAAAG | 0.131
108 | AAAGTCCT | -0.124
109 | GTGTCTAA | -0.00726
110 | ACGACTTG | -0.223
111 | AGGATCAA | 0.0899
112 | ATAATCTG | 0.0267
113 | AAATCCCT | -0.0649
114 | ACCCCACC | 0.159
115 | CAAGATCA | -0.0132
116 | CGACTCAG | -0.135
117 | ACTTACTA | 0.0502
118 | CTTTCTAA | 0.149
119 | ATACCCCA | -0.0525
120 | AGCGGCTC | 0.204
121 | AATCTGGA | 0.0109
122 | GGCCATAA | -0.21
123 | CCGGATAC | -0.183
124 | AATACATC | 0.172
125 | CGAGAGAG | -0.0538

Row | Sequence | PBM E-score
126 | GGCGGCCC | -0.351
127 | AACATTCA | -0.0612
128 | GTCGTTGA | 0.0702
129 | CCATTAGG | -0.202
130 | CGAACGAG | -0.108
131 | AATACGAC | 0.0982
132 | ACCTCACA | 0.00428
133 | CACCGCGG | -0.0133
134 | ACCTCGAG | 0.1
135 | CATTATTA | 0.253
136 | CCTTAAAC | -0.0906
137 | CGGACCGA | -0.0526
138 | TGGGGACA | -0.191
139 | GAGTCTCA | -0.292
140 | AGACATTA | -0.0766
141 | CAAAGGCG | -0.0672
142 | ATTGTGAA | 0.099
143 | GCAAGGTA | 0.00022
144 | CAGCCCCA | -0.163
145 | CCTATGAA | -0.17
146 | GGATACAA | 0.0721
147 | CCCGAGGC | -0.215
148 | ATGCCAAG | 0.0101
149 | CCAACTCG | -0.0873
150 | ACGGGTTA | -0.184

Row | Sequence | PBM E-score
151 | CCTGCCGA | -0.293
152 | TCCATAGA | -0.201
153 | GTACACTA | -0.127
154 | CTATGGCC | -0.271
155 | CCCGGGAC | -0.291
156 | TCACAAAA | 0.256
157 | CTTGTGTC | 0.0256
158 | CCCTGGAA | -0.325
159 | AGCACGGA | -0.146
160 | ACACACCC | -0.0768
161 | TGGATAAA | 0.0202
162 | ACGTATCC | 0.0374
163 | CGTTGTCC | 0.126
164 | AGGTTCAT | -0.193
165 | CGTAACTC | 0.208
166 | CATACCAC | 0.0173
167 | CCGCGTGC | -0.00633
168 | GATTAAAA | 0.242
169 | CACATGGC | 0.0183
170 | AGAAGACC | -0.0866
171 | ACAAATGG | 0.121
172 | CTGTACTA | 0.155
